# Experimental data from the supplement of paper PMC4166925.
# ± gives the standard deviation of the averaged measurements. Over roughly 33,000 sequences, “E-score (dimensionless, -0.5 to 0.5)” has its median near -0.049; the highest 2% begin near 0.37. This is one part of the list.
# System: T1, PmTbr T-box DNA-binding domain (GST fusion)
# T1 sequence: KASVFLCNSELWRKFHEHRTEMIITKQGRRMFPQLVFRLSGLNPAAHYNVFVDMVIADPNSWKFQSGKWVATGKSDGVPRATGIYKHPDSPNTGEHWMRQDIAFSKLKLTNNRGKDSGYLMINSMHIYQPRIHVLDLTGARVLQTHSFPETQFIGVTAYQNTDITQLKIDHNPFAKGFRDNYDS
# Test: PBM E-score of 8-mer (E-score (dimensionless, -0.5 to 0.5)); Tbr is Tbrain of the sea star Patiria miniata (Pm) or the sea urchin Strongylocentrotus purpuratus (Sp); higher = stronger binding preference; most listed sequences are background and not binding sites
# Details: the construct has about 5 more residues each side
# Summary of the method: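 Each ungapped 8-mer received an enrichment E-score from the Universal PBM Analysis Suite, averaged over duplicate arrays. The proteins were Tbr T-box DNA-binding domains, covering the whole T-box plus about five flanking residues, fused to GST and expressed in BL21 E. coli at 20 °C before glutathione affinity purification. Universal Agilent oligonucleotide arrays were made double-stranded by primer extension and incubated with 200 nM protein in PBS (pH 7.5). The arrays were then scanned and quantified, and every 8-mer was scored from probe intensities.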
row,Sequence,PBM E-score of 8-mer
1,AAGGCCGG,-0.215 ± 0.048
2,TCGTTACA,0.0343 ± 0.072
3,GCTTAGAA,-0.182 ± 0.096
4,AATCCATC,-0.0744 ± 0.026
5,CTGTAGCA,-0.0144 ± 0.079
6,GAGTTCCA,-0.164 ± 0.018
7,AGCGTGCC,-0.0162 ± 0.0006
8,ACTGGCTA,-0.161 ± 0.092
9,CTCAGTAC,-0.165 ± 0.026
10,CGTTTCTC,0.0182 ± 0.024
11,CGCCCCAA,0.162 ± 0.0052
12,GCTGTCCC,-0.138 ± 0.045
13,AGATAGGA,-0.189 ± 0.015
14,ACATCGAA,0.0304 ± 0.038
15,AGGAGTAG,-0.178 ± 0.042
16,AGGACCAA,-0.19 ± 0.038
17,AACTCCAA,0.116 ± 0.019
18,CCACCTAC,0.273 ± 0.049
19,CATAAAAG,-0.163 ± 0.065
20,CAACAAGA,-0.0364 ± 0.00098
21,AGAAACAC,0.212 ± 0.046
22,CCCGCTAC,-0.0172 ± 0.029
23,ACTTACAT,0.11 ± 0.039
24,AAAAGGAT,-0.0319 ± 0.081
25,GACGTCAC,0.172 ± 0.033

row,Sequence,PBM E-score of 8-mer
1,ACCATAAC,0.063 ± 0.034
2,CCTCTGTC,0.0968 ± 0.098
3,CACGTAAA,0.0269 ± 0.0072
4,AGCTGCAC,0.0946 ± 0.0038
5,GACTCCAC,-0.228 ± 0.018
6,ACTACCCT,0.09 ± 0.0018
7,ACCCTTAA,0.0468 ± 0.047
8,CTAAGAAA,-0.0612 ± 0.07
9,TCGGGCCA,-0.0825 ± 0.075
10,CCAACCAC,0.186 ± 0.012
11,AACTCACA,0.2616 ± 0.00053
12,ACTCTTTG,0.2084 ± 0.001
13,AGCGTTTG,-0.0913 ± 0.031
14,GGGCGGGA,0.00096 ± 0.04
15,CGGAGTGC,-0.00886 ± 0.079
16,ACAGGGGT,0.0127 ± 0.07
17,AGCAGCAA,-0.118 ± 0.011
18,AGGATCGC,0.0986 ± 0.03
19,CGAGTACA,-0.0995 ± 0.015
20,GCAGGCAC,0.151 ± 0.039
21,ACGACCGT,-0.135 ± 0.029
22,ACCAACAC,0.296 ± 0.0053
23,CCGTCCAA,-0.0834 ± 0.018
24,ATGAACTA,-0.0123 ± 0.0091
25,GATGGTGC,0.0957 ± 0.011

row,Sequence,PBM E-score of 8-mer
1,CCCAGCCA,-0.0582 ± 0.053
2,ATGTCTAG,0.0887 ± 0.049
3,CCTCGGTA,0.0791 ± 0.018
4,ATACGTGA,0.152 ± 0.018
5,ACCTATGC,0.157 ± 0.04
6,CGCGTTAG,0.281 ± 0.0036
7,ACGTCTTC,-0.0061 ± 0.017
8,ACCCCAGC,-0.039 ± 0.017
9,ATTACGAA,-0.246 ± 0.011
10,CCCGACAG,0.11 ± 0.0062
11,ACGCAAAC,-0.0532 ± 0.082
12,TATTTTAA,-0.0636 ± 0.061
13,CCCATCAG,-0.276 ± 0.13
14,CGGCATAG,-0.0136 ± 0.017
15,CCCGTTAG,0.0969 ± 0.068
16,AGGCCGGC,-0.0825 ± 0.025
17,ATATGAAT,-0.0233 ± 0.082
18,TCTCAAGA,-0.0673 ± 0.063
19,CCGCGCCC,0.0469 ± 0.032
20,AAGAGTAC,-0.296 ± 0.044
21,AATAGAGC,-0.285 ± 0.057
22,GGCCCGGA,-0.154 ± 0.031
23,CGTATGGC,-0.0505 ± 0.0075
24,GTCTTGGA,-0.225 ± 0.037
25,CGAGGTCA,0.0395 ± 0.11

row,Sequence,PBM E-score of 8-mer
1,GCTCCCGA,-0.153 ± 0.05
2,CAAAATCA,0.0972 ± 0.034
3,ATAGTACA,-0.168 ± 0.022
4,CGGTGTAG,0.134 ± 0.1
5,ACTTGCGC,0.183 ± 0.062
6,AGCTGCGC,0.0103 ± 0.024
7,TAAATCTA,0.0196 ± 0.078
8,AGGGAAGG,-0.246 ± 0.044
9,CCATTCTC,0.0677 ± 0.027
10,AAGCATCA,-0.0588 ± 0.0098
11,ACCACTTC,0.116 ± 0.0091
12,AACGCAAT,0.162 ± 0.0089
13,CTGGATTA,-0.197 ± 0.073
14,TCGCTGCA,-0.0922 ± 0.023
15,TTACACAA,0.0808 ± 0.0097
16,CTGTAGAC,-0.173 ± 0.021
17,CGCGCGCG,0.186 ± 0.03
18,ATACTCGA,-0.083 ± 0.053
19,GAGCGCGA,0.291 ± 0.019
20,CACGGAAG,0.0863 ± 0.026
21,AACGTAGC,-0.026 ± 0.0019
22,ATGACTTA,0.0404 ± 0.052
23,GCTGCTCC,-0.082 ± 0.025
24,CGCTGTAC,-0.173 ± 0.0051
25,CGCCGTCA,0.21 ± 0.09

row,Sequence,PBM E-score of 8-mer
1,ACCCTTCT,-0.0405 ± 0.011
2,TCCGCTAA,0.173 ± 0.014
3,ACATGGGC,-0.183 ± 0.03
4,TAGGCAGA,-0.221 ± 0.05
5,GCTGGGCA,-0.196 ± 0.07
6,AGCGTGAA,0.381 ± 0.004
7,AGGTCCTC,-0.263 ± 0.025
8,GAGTGATC,-0.212 ± 0.036
9,ATTTACGA,-0.0186 ± 0.17
10,ATCTGACC,-0.268 ± 0.0054
11,AAGACCGC,0.0811 ± 0.038
12,ACCAACTA,-0.0247 ± 0.12
13,TCCGGAGA,-0.138 ± 0.06
14,CATCATCG,-0.0371 ± 0.063
15,CCACCTAG,0.264 ± 0.0049
16,CCCACGAA,0.0862 ± 0.068
17,CTTAGGAC,-0.267 ± 0.0085
18,AGTGTTTG,0.275 ± 0.036
19,TACTAGCA,0.115 ± 0.062
20,TCCAGTAA,-0.182 ± 0.035
21,CGGCTGAC,-0.176 ± 0.06
22,CTTCTCGC,0.229 ± 0.027
23,AGCTACAC,0.0294 ± 0.011
24,AGCGAACG,0.0481 ± 0.02
25,ACGAATCG,0.201 ± 0.029

row,Sequence,PBM E-score of 8-mer
1,CGGTTGCA,0.145 ± 0.037
2,CGGAGCCG,-0.145 ± 0.068
3,GATACAGA,-0.189 ± 0.0045
4,ATCATGAG,-0.136 ± 0.011
5,GATACCTA,-0.113 ± 0.03
6,ATTTCGCC,-0.0762 ± 0.14
7,CGTTTCTA,-0.084 ± 0.0067
8,CATGCCAG,-0.112 ± 0.042
9,GAAGGTGC,0.439 ± 0.012
10,GTTCTCTA,-0.0568 ± 0.065
11,CGCTTAGA,-0.123 ± 0.017
12,GATATCTA,-0.117 ± 0.025
13,CATCGCCA,0.0857 ± 0.026
14,AAACCCTT,-0.334 ± 0.019
15,CCAAGATA,-0.101 ± 0.0067
16,AACTGGCC,-0.00308 ± 0.086
17,ACGATGTC,-0.0933 ± 0.018
18,AGCGTTAT,0.105 ± 0.049
19,ACATTTAG,0.0367 ± 0.035
20,TCGATCGA,-0.00381 ± 0.11
21,GATAGGTA,0.085 ± 0.09
22,GCTCGCGA,0.225 ± 0.011
23,AATCCTGG,-0.138 ± 0.028
24,CGCCGTGC,0.0684 ± 0.03
25,CCGTGAGG,0.044 ± 0.027

row,Sequence,PBM E-score of 8-mer
1,CGATACTC,-0.00241 ± 0.045
2,CCCAGGCA,-0.204 ± 0.18
3,AACGGCCG,-0.0128 ± 0.013
4,AGACGTAC,-0.0326 ± 0.046
5,AACCTCTC,-0.0958 ± 0.093
6,TGTTAGAA,0.183 ± 0.018
7,ACACCTAT,0.4662 ± 0.00073
8,GGCTGGGA,-0.202 ± 0.1
9,GCCTCTCA,0.0474 ± 0.026
10,CATCCCGA,0.0359 ± 0.022
11,GTATAAAA,-0.166 ± 0.085
12,GTAACTTA,-0.0791 ± 0.07
13,GGTTTCAC,0.308 ± 0.019
14,TCGTTAGA,-0.0141 ± 0.027
15,AGTTCTAT,-0.232 ± 0.054
16,ATGCGGAG,-0.142 ± 0.059
17,ACAACATG,0.179 ± 0.0072
18,ACGAGTGA,0.069 ± 0.067
19,CTGTTGGC,0.165 ± 0.047
20,GGCGCGAA,0.4607 ± 0.0017
21,GTGAACAC,0.35 ± 0.021
22,ATATATTA,-0.227 ± 0.014
